Measured values reported in PubChem BioAssay AID1466 (National Center for Advancing Translational Sciences (NCATS), 2008).
The campaign covered roughly 200,000 compounds. About 10 (0.005%) were called active. Inconclusive means that the source gave no clear call. Such entries were picked first, then a sample of the others. The call rests on the fitted dose curve; in most records, active means well fitted inhibition curve with a large enough effect; inconclusive means small, poorly fitted or top-dose-only effect, or effect the other way, or another doubt; inactive means no such curve, though single readings can be large or run the other way. No potency is given beside an inconclusive call; the fits are too rough.

Molecular target: Lysosomal alpha-glucosidase (Homo sapiens) (UniProt P10253)
Experiment: qHTS Assay for Inhibitors of Human alpha-Glucosidase as a Potential Chaperone Treatment of Pompe Disease;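 on activity change, negative = inhibition: plate controls were uninhibited enzyme wells for no effect and no-enzyme background for full effect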
Details: purified human GAA, 4-MU-alpha-glucoside fluorescence; activity change, negative = inhibition: at 76.9 µM (top of the series) unless noted
In short: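 Activity normalized between no-enzyme (basal) and enzyme-only wells. Conditions: 4 nM human enzyme, 400 uM fluorogenic substrate, citrate/phosphate pH 5.0 with Tween-20, 20 min room temperature, compounds up to 77 uM.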
Potency means the concentration at half of the fitted maximal effect; tags describe the fitted curve by direction and shape.

Compound | Potency | activity change, negative = inhibition
COC(=O)c1[nH]c2ccc(C)cc2c1NC(=O)Nc1ccc(OC)cc1 | inconclusive [activator, single point] | 
CCCCCn1c(CCC(=O)Oc2ccccc2OC)nc2c1c(=O)[nH]c(=O)n2CCCC | inconclusive [activator, partial curve, poor fit] | 
CCOC(=O)c1ccc(NC(=O)C(=O)NCc2ccccn2)cc1 |  | inconclusive: 13.7% [activator]
O=C(Nc1nnc(-c2ccccc2)s1)c1cc(S(=O)(=O)N2CCOCC2)c(Cl)cc1Cl | inconclusive [inhibitor, full curve, poor fit] | 
COc1ccc(-n2cccc2/C=C2\C(=N)N3N=C(C(C)C)SC3=NC2=O)cc1 | inconclusive [inhibitor, single point] | 
COc1ccc(-c2ccnc3nc(Sc4ncc(C(F)(F)F)cc4Cl)nn23)cc1 | inconclusive [activator, partial curve] | 
c1ccc(-c2nnc(-c3ccccc3)c(-c3c[nH]c4ccccc34)n2)cc1 | inconclusive [inhibitor, single point] | 
CC(C)CC(=O)N(Cc1ccc(F)cc1)C1CCS(=O)(=O)C1 (centres undefined) | inconclusive [inhibitor, full curve, poor fit] | 
COc1cc(Nc2ccc(C(=O)O)cc2[N+](=O)[O-])cc(OC)c1 | inconclusive [inhibitor, single point] | 
CC(C)CCN1CCN(Cc2cn[nH]c2C2CCCCC2)CC1CCO (centres undefined) |  | inconclusive: 18.8% [activator]
Cc1ccc(-n2c(C)cc(/C=N/NC(=O)Cn3c4ccccc4c(=O)c4ccccc43)c2C)cc1 |  | inconclusive: 21.1% [activator]
CCOC(=O)N1CCN(C(=O)C2CCN(c3ncnc4c3sc3cccc(F)c34)CC2)CC1 | inconclusive [inhibitor, single point] | 
COCCN1C=C(C(=O)OC)C(c2ccc(OC)c(OC)c2)C(C(=O)OC)=C1 | inconclusive [activator, partial curve] | 
CC(=O)C1=C(O)C(=O)N(c2ccc(Br)cn2)C1c1ccccc1F (centres undefined) | inconclusive [inhibitor, single point] | 
O=C1Nc2cc(Cl)c(Cl)cc2N(O)N1c1cccc(Cl)c1 | inconclusive [inhibitor, single point] | 
Fc1ccc(Nc2nc(Oc3ccccc3F)nc(N3CCCC3)n2)cc1 | inconclusive [inhibitor, full curve, poor fit] | 
CC12CC(NC(=O)N1CCc1ccccc1)c1ccccc1O2 (centres undefined) |  | inconclusive: -15.1% [inhibitor]
Fc1ccccc1N1CC(c2ccccc2)C(c2cccs2)=N1 (centres undefined) | inconclusive [activator, partial curve] | 
Cc1ccc(S(=O)(=O)N2CCN(C(=O)N(c3ccccc3)c3ccccc3)CC2)cc1 | active: 25.1 µM | 
CCN(CC)c1ccc(NC(=O)CN2CCN(c3ccccc3F)CC2)cc1 | inconclusive [inhibitor, single point] | 

Compound | Potency | activity change, negative = inhibition
Cc1cc(C)cc(OCc2nc(-c3cccnc3)no2)c1 |  | inconclusive: 21.1% [activator]
Nc1nc2c(s1)CCc1c-2cnn1-c1ccccc1 | inconclusive [inhibitor, single point] | 
Cc1nc2c(-c3ccccc3)c(C)nn2c(C)c1CCC(=O)NC(C)CCc1ccco1 (centres undefined) | inconclusive [inhibitor, single point] | 
Cc1ccc2c(c1)nnn2C1CCN(S(=O)(=O)c2ccc(C(=O)N(C)C)cc2)CC1 | inconclusive [inhibitor, single point] | 
COc1ccc(C(=O)/C=C/C(=O)N(CC(=O)NCCC(C)C)Cc2cccs2)c(O)c1 |  | inconclusive: 20.9% [activator]
CCN1CCN(CCOc2cccc(Oc3ccccc3)c2)CC1 | inconclusive [inhibitor, full curve, poor fit] | 
CC(C(=O)Nc1nccs1)c1ccc([N+](=O)[O-])cc1 (centres undefined) | inconclusive [inhibitor, single point] | 
CCn1nnnc1SCC(=O)Nc1nc(-c2cccs2)cs1 | inconclusive [inhibitor, single point] | 
CC#CCN(CC#CC)S(=O)(=O)c1ccc(S(=O)(=O)N2CCOCC2)cc1 | inconclusive [inhibitor, single point] | 
COCCNC(=O)C(c1c[nH]c2ccccc12)N(C(=O)c1snc(C(N)=O)c1N)c1cccc(OC)c1 (centres undefined) | inconclusive [inhibitor, partial curve] | 
Cc1ccccc1-n1c(C)cc(/C=C2/C(=N)N3C(c4ccccc4)=CSC3=NC2=O)c1C | inconclusive [inhibitor, partial curve] | 
CCCSc1oc(-c2ccco2)nc1S(=O)(=O)c1ccccc1 | inconclusive [inhibitor, partial curve] | 
C(#Cc1ccccc1)Cn1nnc2ccccc21 |  | inconclusive: -16% [inhibitor]
CCCCn1c(CCCNC(=O)CC)nc2ccccc21 | inconclusive [inhibitor, single point] | 
Cc1ccc(S(=O)(=O)N2CCN(c3ccc(S(=O)(=O)N4CCOCC4)cn3)CC2)cc1 | inconclusive [inhibitor, single point] | 
Cc1ccc(S(=O)(=O)N2CCN(C3CC(=O)N(CCc4ccccc4)C3=O)CC2)cc1C (centres undefined) | inconclusive [inhibitor, single point] | 
CCN(CC)c1ccc(C(=O)OCC(=O)NCC2CCCO2)cc1 (centres undefined) | inconclusive [inhibitor, single point] | 
C(=N\NC1=Nc2cccc3cccc1c23)/c1ccccn1 | inconclusive [inhibitor, single point] | 
COc1ccc(-c2cc(C(=O)NCc3cn(C)nc3C)c3ccccc3n2)cc1OC | inconclusive [inhibitor, single point] | 
